Results as given in PubChem BioAssay AID652104 (National Center for Advancing Translational Sciences (NCATS), 2013).
About 7,200 (1.8%) of roughly 410,000 compounds were called active. This list was built around the results that the source calls inconclusive (neither active nor inactive); the mix of calls is not that of the screen. Calls come from the whole dose curve; as a rule, active = well fitted activation curve with a large enough effect; inconclusive = small, poorly fitted or top-dose-only effect, or another doubt; inactive = no such curve, though single readings can be large or run the other way. Where the call is inconclusive, the potency comes from a doubtful curve fit.

Experiment: qHTS of TDP-43 Inhibitors; note: nearly all actives have a fitted effect of over 50% in size; for growth rescue (activation): % of control where 0% means no effect
Conditions: TDP-43 expressing yeast growth rescue, BacTiter-Glo, 24 h; growth rescue (activation): at 46.1 µM (top of the series) unless noted
In short: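 Growth rescue of TDP-43-toxic yeast measured as ATP luminescence (BacTiter-Glo). Cells grown to mid-log in raffinose, induced in galactose at OD600=0.02, exposed to compound 24 hr at 30 deg C.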
Potency is the fitted concentration of half-maximal effect; tags give direction and shape of the fitted curve.

Growth rescue (activation), inactive:
CCn1c(=O)cc(OCC(=O)NCCC(C)C)c2ccccc21 -5.48%
N#Cc1ccc(C(=O)Nc2nc(SCc3ccc(Cl)cc3)n[nH]2)cc1 0.0518%
O=C(NNc1cc(Cl)ccc1Cl)C1CCC1 23.4%
CCOC(=O)c1cc2c(=O)n3ccccc3nc2n(Cc2ccco2)c1=NC(=O)c1cccnc1 -0.969%
CCN1CCN(c2oc(/C=C/c3ccc(OC)c(OC)c3)nc2C#N)CC1 5.3%
COc1ccc(C2C(=O)N(C3CCCCC3)CC(=O)N2CCC2=CCCCC2)cc1 (stereo not given) 0%
O=C(NC1(C(F)(F)F)C(=O)Nc2c1c(=O)[nH]c(=O)n2-c1ccc(F)cc1)c1ccccc1 (stereo not given) 5.33%
Cc1cccc(CN(C)CCc2ccccn2)c1 -15.3%
COc1ccccc1NC(=O)c1cc(S(=O)(=O)NCCc2ccccc2)ccc1F 26%
Cc1cc(OCC(=O)Nc2ccc(C(=O)OC3CCCCC3)cc2)cc(C)c1Cl 21.8%
C/C(=N\NC(=O)c1ccc(Cl)cc1)c1cccs1 -0.903%
Cc1ccc(NC(=O)c2cc(S(=O)(=O)N3CCCCC3)c[nH]2)cc1N(C)C 10.4%
O=C(CN1CCCC1)Nc1cc(F)ccc1F 11.7%
CC(C)(C)N1C(=O)[C@H]2[C@@H](c3ccc(Br)cc3)N3C(=O)N(c4cccc(Cl)c4)C(=O)[C@@]3(Cc3ccccc3)[C@H]2C1=O -0.421%
CC(=O)Nc1ccc2nc(-c3ccccn3)[nH]c2c1 5.73%
Cc1ccc(-n2nc(C)c3nc(CCC(=O)Nc4cccc(C)c4C)c(=O)n(C)c32)cc1 -2.24%

Growth rescue (activation), inconclusive:
O=C1C=CC2(O[C@H](c3ccccc3)[C@@H](c3ccccc3)O2)[C@H](Sc2ccccc2O)C1 -92% [activator]

Potency, inconclusive:
O=S1(=O)CCOC[C@H](c2ccccc2)N1Cc1cccc(Cl)c1 10 µM [activator, partial curve]
N#Cc1nc(-c2ccccc2Cl)oc1N1CCCCC1 20 µM [activator, single point]
CCCn1c(SCc2nc(-c3ccc(OC)cc3OC)no2)nnc1-c1ccc(Cl)cc1 35.5 µM [activator, single point]
CCC1CN(C(=O)N2CCC(C(=O)NCCc3ccc(Cl)cc3)CC2)c2ccccc2O1 (stereo not given) 35.5 µM [activator, single point]
CCC(=O)Nc1c(C(=O)N2CCN(c3ccc(F)cc3)CC2)oc2ccccc12 17.8 µM [activator, single point]
COc1ccc(CCNS(=O)(=O)c2ccc3c(c2)CC(C)N3C(=O)C2CCC2)cc1OC (stereo not given) 7.08 µM [activator, partial curve]
CC(C(=O)Nc1ccc2c(c1)OCCO2)c1ccc([N+](=O)[O-])cc1 (stereo not given) 11.2 µM [activator, partial curve]
O=C(c1ccc([N+](=O)[O-])s1)N1CCN(c2ncccn2)CC1 7.08 µM [activator, partial curve, poor fit]
COc1ccc(-n2nnnc2SCC(=O)N(C)C2CCS(=O)(=O)C2)cc1 (stereo not given) 2.51 µM [activator, partial curve]
COC(=O)c1[nH]c2c(c1C(=O)OC)CCc1ccccc1-2 14.1 µM [activator, partial curve]
COc1ccc(NC(=O)c2cnc3sccn3c2=O)cc1 10 µM [activator, partial curve, poor fit]
O=C(NC1CCCC1)c1cc(-c2cccc(Cl)c2)on1 12.6 µM [activator, partial curve]
COCCOC(=O)c1c(C)n(S(=O)(=O)c2ccc(C)cc2)c2ccc(NS(=O)(=O)c3ccc(C)cc3)cc12 3.55 µM [activator, full curve]
CCOc1cc(C2NN=C(c3ccc(C)cc3)S2)ccc1O (stereo not given) 2 µM [activator, full curve]
Cc1nn(CCCC(=O)Nc2ccc(Br)cc2F)c(C)c1[N+](=O)[O-] 11.2 µM [activator, single point]
COc1ccc(NC(=S)c2ccccc2)cc1 14.1 µM [activator, partial curve]
CCOC(=O)c1cccc(N/C=C/C(=O)c2ccc(OC)c(OC)c2)c1 17.8 µM [activator, single point]
Cc1ccc(C(=O)N/N=C2\CCc3ccccc32)c(C)c1 12.6 µM [activator, single point]
CC(NC(=O)COC(=O)Cc1ccc(-c2ccccc2)cc1)c1ccccc1 (stereo not given) 35.5 µM [activator, partial curve]
Clc1ccc(-c2cn3ncsc3n2)cc1 22.4 µM [activator, partial curve]
Cc1cc(C)n2ncc(-c3cccc(Br)c3)c2n1 17.8 µM [activator, single point]
NNc1nc2sc3c(c2c(=O)[nH]1)CCc1ccccc1-3 12.6 µM [activator, partial curve]
Cc1occc1C(=O)NNC(=S)NC(=O)COc1ccc(Cl)cc1Cl 35.5 µM [activator, single point]
COC(=O)c1c(NC(=O)CCC(=O)O)sc(Cc2ccccc2)c1C 22.4 µM [activator, single point]
CCSc1nc(C(F)(F)F)cc(=O)n1-c1ccccc1 35.5 µM [activator, single point]
CN(c1ccccc1)S(=O)(=O)c1cccc(NC(=O)c2nn(C)c(=O)c3ccccc23)c1 31.6 µM [activator, single point]
FC(F)(F)c1ccc(C2Nc3cccc4cccc(c34)N2)cc1 8.91 µM [activator, single point]
NNc1nc(-c2ccccc2)cc(-c2ccccc2)n1 3.98 µM [activator, partial curve]
Cc1ccc(S(=O)(=O)NCCSc2ccccc2)cc1[N+](=O)[O-] 35.5 µM [activator, partial curve]
CC(C(=O)Nc1nc(-c2ccc(F)cc2)cs1)N1C(=O)C2CC=CCC2C1=O (stereo not given) 35.5 µM [activator, partial curve]
CCOc1ccccc1OCCn1nnc2ccccc21 15.8 µM [activator, single point]
CN1CCc2c(OCc3ccc(F)cc3)cccc2C1=O 3.98 µM [activator, partial curve]
CCc1ccc(NC(=O)C2CCN(c3nc(-c4ccc(OC)cc4)no3)CC2)cc1 35.5 µM [activator, partial curve, poor fit]
CC1CN(c2nc3ccccc3nc2NS(=O)(=O)c2ccccc2)CC(C)O1 (stereo not given) 25.1 µM [activator, single point]
Cc1cccc(C(=O)Nc2ccc3oc(-c4cccc5c(Br)cccc45)nc3c2)c1 2.51 µM [activator, partial curve]
CSc1ccccc1NC(=O)c1cc(Cl)sc1Cl 3.98 µM [activator, full curve]
C[C@@H]1CCCCO[C@H](CN(C)C(=O)Nc2ccc3c(c2)OCO3)[C@H](C)CN([C@@H](C)CO)C(=O)c2cc(NS(=O)(=O)c3ccc(Cl)cc3)ccc2O1 35.5 µM [activator, partial curve, poor fit]
Cc1cccc(NC(=S)NCCC(C)C)c1 17.8 µM [activator, partial curve]
O=C(c1cnn2c(C(F)F)cc(-c3ccccc3)nc12)N1CCc2ccccc2C1 31.6 µM [activator, single point]
C=CCNC(=O)Nc1cc(Cl)ccc1OC 35.5 µM [activator, single point]
CCCn1c(SCc2nc(-c3cc(OC)ccc3OC)no2)nnc1-c1ccc(Cl)cc1 35.5 µM [activator, single point]
Cc1ccc(CSc2nnc(NC(=O)C3=COCCO3)s2)cc1 2 µM [activator, full curve]
CCOC(=O)C1CCN(C2=NC(=O)/C(=C/c3ccc(OC)c(OC)c3)S2)CC1 6.31 µM [activator, partial curve, poor fit]
CCC(C)C1C(C#N)=C(N)Oc2n[nH]c(C)c21 (stereo not given) 35.5 µM [activator, partial curve, poor fit]
CCOc1ccc(NC(=O)c2ccc3c(c2)CCN3S(C)(=O)=O)cc1 12.6 µM [activator, partial curve]

Potency, active:
CCc1ccc(-c2csc(NC(=O)C3=COCCO3)n2)cc1 17.8 µM
COc1ccc(C(C)=O)cc1COC(=O)c1c(C)noc1C 15.8 µM
O=S(=O)(Nc1ccc2nc(-c3ccc(F)cc3)oc2c1)c1ccccc1 35.5 µM
CCC(C)Sc1nc2c(c(=O)n1C)SC(C)C2 (stereo not given) 17.8 µM
CC(=O)Nc1cc(C(=O)NCc2ccccc2Cl)ccc1Sc1ccc(F)cc1 22.4 µM
O=C(Nc1ccccc1)c1ccc(-c2ccc(Br)cc2)o1 12.6 µM
CN(C(=O)COc1ccc(Cl)cc1Br)C1CCCCC1 17.8 µM
COc1ccc(-c2csc(Nc3ccccn3)n2)cc1OC 12.6 µM
